# Measured values as given in the supplement of paper PMC4604168 (melanoma cell lines).
# This is one part of the list. Repeats are few or missing, and single values can be far off.
# Legend:
# Assay in all cases: cell count relative to DMSO control; melanoma cells; higher = more viable cells
# Conditions in all cases: library dose: standard library concentration; 72 h
# [1] = tested on: SkMel28
# [2] = tested on: SkMel30
# [3] = tested on: SkMel5
# [4] = tested on: UACC257
# [5] = tested on: UACC62
# [6] = tested on: WM115
# [7] = tested on: WM1716
# [8] = tested on: WM3526
# [9] = tested on: WM1745
# [10] = tested on: SkMel2
# 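Further: cells treated in 1,536-well plates, then fixed and DAPI-stained, with nuclei counted from automated high-throughput microscope images.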
SMILES,cell count [1],cell count [2],cell count [3],cell count [4],cell count [5],cell count [6],cell count [7],cell count [8],cell count [9],cell count [10]
"O=C(O)c1ccc2c(c1)nc(Nc1cccc(Cl)c1)c1ccncc12 + C/C(O)=C(\C#N)C(=O)Nc1cc(Br)ccc1Br [LFM-A13] (first compound 2 µM, partner dose 10 µM)",43.5%,59.2%,59.5%,88.1%,77.6%,73.9%,84.7%,68.5%,–,–
"COCC[n+]1c2c(n(Cc3cnccn3)c1C)C(=O)c1ccccc1C2=O + O=C(Oc1ccc([N+](=O)[O-])cc1)N1CCC(C(O)(c2ccc3c(c2)OCO3)c2ccc3c(c2)OCO3)CC1 [JZL184] (first compound 0.002 µM, partner dose 5 µM)",37.7%,44.5%,30.4%,12.4%,61.7%,54.4%,52.8%,22.3%,62.1%,–
"Cc1cc(Nc2cc(N3CCN(C)CC3)nc(Sc3ccc(NC(=O)C4CC4)cc3)n2)n[nH]1 [Tozasertib] + O=C(Oc1ccc([N+](=O)[O-])cc1)N1CCC(C(O)(c2ccc3c(c2)OCO3)c2ccc3c(c2)OCO3)CC1 [JZL184] (first compound 0.03 µM, partner dose 5 µM)",73.3%,120%,68.4%,81.2%,71.9%,52.1%,71.2%,95.2%,–,99.9%
"C[C@@H]1CCN(C(=O)CC#N)C[C@@H]1N(C)c1ncnc2[nH]ccc12 + O=C(Oc1ccc([N+](=O)[O-])cc1)N1CCC(C(O)(c2ccc3c(c2)OCO3)c2ccc3c(c2)OCO3)CC1 [JZL184] (first compound 5 µM, partner dose 5 µM)",104%,107%,132%,103%,81.3%,89.1%,88.3%,99.5%,87.2%,–
"Cc1nc(Nc2ncc(C(=O)Nc3c(C)cccc3Cl)s2)cc(N2CCN(CCO)CC2)n1 [dasatanib] + C/C(O)=C(\C#N)C(=O)Nc1cc(Br)ccc1Br [LFM-A13] (first compound 0.02 µM, partner dose 10 µM)",102%,91.3%,65.3%,80.8%,100%,64.4%,55.5%,77.6%,35.1%,91%
"Cc1cc([N+](=O)[O-])ccc1NS(=O)(=O)c1cc(Cl)ccc1Cl + O=C(Oc1ccc([N+](=O)[O-])cc1)N1CCC(C(O)(c2ccc3c(c2)OCO3)c2ccc3c(c2)OCO3)CC1 [JZL184] (first compound 5 µM, partner dose 5 µM)",88.7%,91.8%,83.6%,55.9%,80.3%,80.2%,82.7%,67.6%,87.9%,98.9%
"Nc1ccn([C@@H]2O[C@H](CO)[C@@H](O)C2(F)F)c(=O)n1 [gemcitabine] + Cc1cc(SCc2sc(-c3ccc(C(F)(F)F)c(F)c3)nc2C)ccc1OCC(=O)O [GW0742] (first compound 0.002 µM, partner dose 10 µM)",73.6%,99%,73.7%,104%,88.3%,83.3%,66.3%,86.5%,–,–
"Cc1cc(Nc2cc(N3CCN(C)CC3)nc(Sc3ccc(NC(=O)C4CC4)cc3)n2)n[nH]1 [Tozasertib] + C/C(O)=C(\C#N)C(=O)Nc1cc(Br)ccc1Br [LFM-A13] (first compound 0.03 µM, partner dose 10 µM)",71.7%,108%,60.7%,88.5%,69%,80.5%,78.5%,79.6%,–,101%
"Cc1cc(Nc2cc(N3CCN(C)CC3)nc(Sc3ccc(NC(=O)C4CC4)cc3)n2)n[nH]1 [Tozasertib] + C[C@]12O[C@H](C[C@]1(O)CO)n1c3ccccc3c3c4c(c5c6ccccc6n2c5c31)CNC4=O [Lestaurtinib] (first compound 0.03 µM, partner dose 0.02 µM)",40.3%,71.6%,48.3%,103%,62.4%,57.7%,83.4%,66.2%,63.2%,91.9%
"O=C(O)c1ccc2c(c1)nc(Nc1cccc(Cl)c1)c1ccncc12 + O=C(Oc1ccc([N+](=O)[O-])cc1)N1CCC(C(O)(c2ccc3c(c2)OCO3)c2ccc3c(c2)OCO3)CC1 [JZL184] (first compound 2 µM, partner dose 5 µM)",125%,86.5%,89.1%,76.8%,81.1%,82%,78.3%,85.5%,–,88.2%
"CO[C@H]1C[C@@H]2CC[C@@H](C)[C@@](O)(O2)C(=O)C(=O)N2CCCC[C@H]2C(=O)O[C@H]([C@H](C)C[C@@H]2CC[C@@H](OCCO)[C@H](OC)C2)CC(=O)[C@H](C)/C=C(\C)[C@@H](O)[C@@H](OC)C(=O)[C@H](C)C[C@H](C)/C=C/C=C/C=C/1C [everolimus] + O=C(Oc1ccc([N+](=O)[O-])cc1)N1CCC(C(O)(c2ccc3c(c2)OCO3)c2ccc3c(c2)OCO3)CC1 [JZL184] (first compound 0.1 µM, partner dose 5 µM)",37.7%,63.9%,53%,88.5%,76.7%,66%,71.9%,65.8%,–,67.9%
